In the RNAGym collection of RNA variant scans (doi:10.7554/elife.90254):
The source gives no read counts; variants with many changes may rest on few reads.

B1: LINE1-full (parent)
chain: UACGUAGGUGGUUUUCCCCUGAUAGUGCUAAGGGGGCCUGGAAGUUUGGACUGGGCAGAGCUCAACACAGCGUGGCAAAGUGGCUGUGGCUAGACUGCCUCUCUGGAUUCCUCGUCACUCAGCAGGGCAUCUCUGAGAGAAAUGCC

Variants of: B1
Assay: self-cleavage, relative activity (ratio to wild type); higher = more cleavage; in vitro, sequencing; the parent is a self-cleaving ribozyme

Variant	self-cleavage
A69U A121U A140G	0.04
A69U C71U U73C A107U U108C	0.07
A69U C118U A141G	0.03
A69U C133U A138G	0.05
A69U G74A C76U U143C	0.05
A69U G86A A142G	0.03
A69U G114A U130C	0.1
A69U U73A A141G A142G	0.02
A69U U73C A107G U115A A129G A142G	0
A69U U73G A77C U115C	0
A69U U85A C90A U143A	0.05
A69U U87C A141G	0.03
A69U U91A A142G C146A	0.01
A69U U91C U108C	0
A69U U100A U132G U143C	0.06
A69U U100C C118U	0.08
A69U U100C G125A	0.13
A69U U102C A129G	0
A69U U102C U132C	0
A69U U112C A124G	0
A69U U112C A138U	0.09
G70A A77G A138G	0.26
G70A U112G U143C	0.13
G70A U130C A140G	0.17

Variant	self-cleavage
G70C A107U G139A	0.18
G70C C84G C101A	1.23
G70U U73C U102C A129G	0
G70U U100C U102C C120U U143C	0.16
C71A A77G A92U U108C U143A	0.6
C71A A77G C120A U134A	0.3
C71A A124G A136G	0.23
C71A U85C A94G	0.02
C71A U109C U112C	0.29
C71G C113U U132C G137A	0.3
C71U A77U U119G	2.47
C71U U73C A79G A94U U130C	0.53
C71U U81A U115A	0.94
C71U U85A A94G	0
C71U U87A U143A	0.05
C71U U100A C113A G114A A124G U143C	0.08
C71U U115C A124G	0.2
G72A A77U G93A U102C U132C	0.02
G72A A78U U96C U112A	0.13
G72A A79G A124G	0.58
G72A A79G C110A C116U	1.05
G72A A94G U104A	0.12
G72A A124G U134A	0.37
G72A G125U A136U	1.79

Variant	self-cleavage
G72A G127A A136G	1.71
G72A U73A U96C	0.12
G72A U85C G86A U87A	0.07
G72A U87C A124G	0.05
G72A U91C A94G U104C A136G	0.16
G72A U109A A140G	1.47
G72A U109C A142G	1.16
G72A U112C A138U C145U	1.23
G72A U115C A124G U134C	1.19
G72A U134C A138G	1.75
G72A U134G A136G	1.9
G72U G135A A142G	0.99
G72U U81A U112G	1.8
G72U U85C A121U U132C	0.22
G72U U96A U102C	0.11
G72U U102A A107U C113U	2.55
G72U U102A U115C	1.71
U73A A78G C128U G144U	0.47
U73A A78G U87C A140U	0.03
U73A A78U A107G A121U	2.9
U73A A78U U96C	0.16
U73A A79G U81C G122U A142G	1.42
U73A A79G U115A	0.97
U73A A79U C84U A129G	0.04

Variant	self-cleavage
U73A A92C U100A A117U	0.1
U73A A92U A94G A121U	0.21
U73A A94G U96C	0.12
U73A A107G C111U	1.3
U73A A117G A138G	1.45
U73A A129G U134C	1.23
U73A C99U A121G	0.89
U73A C110A U130G	0.72
U73A G86A U87A	0.08
U73A U81C G105A U115A	1.6
U73A U81C U87A	0.03
U73A U85C U96A	0.06
U73A U87A U132C	0.05
U73A U87C A141U A142G	0.1
U73A U87C A142G	0.06
U73A U91A U119C	0.92
U73A U91C U119A G139U	0.28
U73A U96A A136G	0.29
U73A U100C A121U	1.71
U73A U100C U130A	2.11
U73A U102A U104G	1.78
U73A U102C U112C	1.65
U73A U102C U134C	1.76
U73A U104A U130A	0.76

Variant	self-cleavage
U73A U104C A142G	2.14
U73A U108C U143C	2.41
U73A U109C A138G A141G U143A	0.41
U73A U115A G144A	0.77
U73A U115C A121G	1.08
U73A U115G U119C A129G	2.45
U73A U119C A136G	1.89
U73A U130C U134C A141G	2.04
U73C A77G A138G	0.92
U73C A77U G122A	1.79
U73C A78G U85C	0
U73C A79G A141G	1.67
U73C A79G U81A	1.49
U73C A79G U134C	0.89
U73C A92U U130C	0
U73C A94U U132C A138U	0.44
U73C A117U A140G	1.46
U73C A121U A136G A141G	2.6
U73C A136G A138G	2.04
U73C A138G U143C	2.04
U73C C95A A129G	0.14
U73C C111U A117G C118A A140G	1.86
U73C G74A A77G	2.11
U73C G82A U132C	1.87

Variant	self-cleavage
U73C U81C U91C G114A	0.74
U73C U85A C101A	0.2
U73C U87A A142G	0
U73C U87A U104C C123U	0.15
U73C U87C U115C	0
U73C U87G A142G	0.47
U73C U96C U102C	0
U73C U100C U112C	0
U73C U104A U143A	1.56
U73C U109A A117C	2.11
U73C U109C U112A	1.75
U73C U109G U115A	0.53
U73C U115C A138U	2.23
U73C U119C U130C	0.97
U73C U132C A142G	0.77
U73C U134A A142G	1.38
U73G U115A A140G C146U	1.49
U73G U115G U134C	1.25
G74A A78G U96C	0
G74A A78G U102C U104A	0.87
G74A G126A G135A	0.9
G74A U100C A121U	1.39
G74A U100C U143C	1.48
G74A U109C U115C A129G	1.3

Variant	self-cleavage
G74A U130C A140G	1.67
G74A U134A A140G	0.39
G74U U100C U104C	1.96
G75A A77G U143C	1.01
G75A U96A A129U	0.04
G75U C76A U81C A124G	1.1
G75U C120U G126A	0.87
C76G A79G G86A	0.21
C76U A77G U112C A140G	1.27
C76U G127A U134A	1.49
C76U U102C A121C	2.63
C76U U109A A140G	0
C76U U112A U134C	1.48
A77C U104C C111U	1.51
A77C U104C G105C A141U U143C	1.7
A77G A78G A107G	1.36
A77G A78G A140G	2.14
A77G A78G C116U	1.06
A77G A78G G139A	2.51
A77G A79G U87C A142G	0.42
A77G A79G U87C U96A	0.21
A77G A79U U85C A142G	0
A77G A92G A140U	0.19
